# Results: paper PMC2173498 (The Journal of Cell Biology, 2002)
# B1: GST-M9 (domain or fragment)
# chain: not shown
# Biological target: the molecule itself
# Assay: SEC
protein,measurement,value
B1,stoichiometry N,2
